This is an account of results in the supplement of paper PMC4604168 (melanoma cell lines).

Each structure is given as a SMILES string. This is one part of the list. Most values come without repeats; read them as rough.
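Further: cell number obtained by counting DAPI-stained nuclei in high-throughput microscope images with image analysis software, screen run in 1,536-well plates.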

The assay concerns WM1716. In words: cell count relative to DMSO control; melanoma cells; higher = more viable cells. The note with it: library dose: low library concentration; 72 h.
Turning to `O=C(O)[C@@H]1[O][Sb](=[O])([O][Sb]2(=[O])[O][C@H]([C@H](O)CO)[C@H](O)[C@H](C(=O)O)[O]2)[O][C@H]([C@H](O)CO)[C@@H]1O` (stereo partly drawn) [stibogluconate] + Cn1nnc2c(C(N)=O)ncn2c1=O [temozolomide] (first compound 2 µM, partner dose 2 µM), the cell count was found to be 85.8%.
For the compound `O=C(O)[C@@H]1[O][Sb](=[O])([O][Sb]2(=[O])[O][C@H]([C@H](O)CO)[C@H](O)[C@H](C(=O)O)[O]2)[O][C@H]([C@H](O)CO)[C@@H]1O` (stereo partly drawn) [stibogluconate] + CC(C)(C)c1cnc(CSc2cnc(NC(=O)C3CCNCC3)s2)o1 [SNS-032] (first compound 2 µM, partner dose 0.01 µM), the cell count turned out to be 101%.
In turn, `O=C(O)c1ccc2c(c1)nc(Nc1cccc(Cl)c1)c1ccncc12` + CO[C@@H]1[C@H](N(C)C(=O)c2ccccc2)C[C@H]2O[C@]1(C)n1c3ccccc3c3c4c(c5c6ccccc6n2c5c31)C(=O)NC4 [Midostaurin] (first compound 0.4 µM, partner dose 0.08 µM) had a cell count of 71%.
For `O=C(O)[C@@H]1[O][Sb](=[O])([O][Sb]2(=[O])[O][C@H]([C@H](O)CO)[C@H](O)[C@H](C(=O)O)[O]2)[O][C@H]([C@H](O)CO)[C@@H]1O` (stereo partly drawn) [stibogluconate] + COCC[n+]1c2c(n(Cc3cnccn3)c1C)C(=O)c1ccccc1C2=O [YM155] (first compound 2 µM, partner dose 0.0004 µM), the cell count stood at 89.5%.
In turn, `O=C(Nc1cc(C(F)(F)F)cc(C(F)(F)F)c1)c1cc(Cl)ccc1O` + NC1(c2ccc(-c3nc4ccn5c(=O)[nH]nc5c4cc3-c3ccccc3)cc2)CCC1 [MK2206] (first compound 0.016 µM, partner dose 0.4 µM) registered a cell count of 96.2%.
On to `O=C(Nc1cc(C(F)(F)F)cc(C(F)(F)F)c1)c1cc(Cl)ccc1O` + O=c1[nH]nc(Sc2ncc([N+](=O)[O-])s2)n1-c1ccc2c(c1)OCCO2 [BI78D3] (first compound 0.016 µM, partner dose 0.2 µM), for which the cell count was found to be 95.2%.
Under `O=C(O)[C@@H]1[O][Sb](=[O])([O][Sb]2(=[O])[O][C@H]([C@H](O)CO)[C@H](O)[C@H](C(=O)O)[O]2)[O][C@H]([C@H](O)CO)[C@@H]1O` (stereo partly drawn) [stibogluconate] + Nc1cccc2c1CN(C1CCC(=O)NC1=O)C2=O [lenalidomide] (first compound 2 µM, partner dose 1 µM) stands 107%; under `Cn1nnc2c(C(N)=O)ncn2c1=O` [temozolomide] + CN(NC(=O)CC(=O)NN(C)C(=S)c1ccccc1)C(=S)c1ccccc1 [STA4783] (first compound 2 µM, partner dose 0.006 µM), 51%.
